# Results published in the supplement of paper PMC8728848.
# This is one part of the list.
# B1: Gal 2 (Canis lupus) (protein)
# chain: MSGKFEVMNMDMKLGGTLKIKGKIAGDADGFVINLGQGSDKLNLHFNPRFHESVIVCNSRNWGQEQRDKHMCFSPGSEVKFTVTFENDGFKVKLPDGHQLTFPNRLGHSHLSYLGVQGGLKVSSFKIE
# Assays:
# Assay in all cases: glycan array binding signal (z-score within array); higher = stronger binding
# Settings in all cases: glycan notation: IUPAC condensed, linker removed
# [1] = target: Gal(b1-3)GlcNAc(b1-3)Gal(b1-4)[Fuc(a1-3)]GlcNAc(b1-6)[Gal(b1-3)GlcNAc(b1-3)]Gal(b1-4)Glc
# Procedure, shortened: (§1)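 Columns mapping to the same glycan were averaged after glycan names were converted to IUPAC-condensed notation. The data come from 3228 arrays in the Consortium for Functional Glycomics database, limited to those with an available protein sequence. Binding is reported as a within-array Z-score averaged across arrays of one protein sequence and across linkers.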
# [2] = target: Gal(b1-3)GlcNAc(b1-3)GalNAc
# Procedure, shortened: as §1
# [3] = target: Gal(b1-3)GlcNAc(b1-6)Gal(b1-4)GlcNAc
# Procedure, shortened: as §1
# [4] = target: Gal(b1-3)[Fuc(a1-4)]GlcNAc
# Procedure, shortened: as §1
# [5] = target: Gal(b1-3)[Fuc(a1-4)]GlcNAc(b1-2)Man(a1-3)[Gal(b1-3)[Fuc(a1-4)]GlcNAc(b1-2)Man(a1-6)]Man(b1-4)GlcNAc(b1-4)GlcNAc
# Procedure, shortened: as §1
# [6] = target: Gal(b1-3)[Fuc(a1-4)]GlcNAc(b1-2)Man(a1-3)[Gal(b1-3)[Fuc(a1-4)]GlcNAc(b1-2)Man(a1-6)]Man(b1-4)GlcNAc(b1-4)[Fuc(a1-6)]GlcNAc
# Procedure, shortened: as §1
# [7] = target: Gal(b1-3)[Fuc(a1-4)]GlcNAc(b1-3)Gal(b1-3)[Fuc(a1-4)]GlcNAc
# Procedure, shortened: as §1
# [8] = target: Gal(b1-3)[Fuc(a1-4)]GlcNAc(b1-3)Gal(b1-4)GlcNAc
# Procedure, shortened: as §1
# [9] = target: Gal(b1-3)[Fuc(a1-4)]GlcNAc(b1-3)Gal(b1-4)[Fuc(a1-3)]GlcNAc
# Procedure, shortened: as §1
# [10] = target: Gal(b1-3)[GlcNAc(b1-6)]GalNAc
# Procedure, shortened: as §1
# [11] = target: Gal(b1-3)[Neu5Ac(a2-6)]GalNAc
# Procedure, shortened: as §1
# [12] = target: Gal(b1-3)[Neu5Ac(a2-6)]GlcNAc(b1-6)Gal(b1-4)Glc
# Procedure, shortened: as §1
# [13] = target: Gal(b1-3)[Neu5Ac(b2-6)]GalNAc
# Procedure, shortened: as §1
# [14] = target: Gal(b1-4)Gal
# Procedure, shortened: as §1
# [15] = target: Gal(b1-4)GalNAc(a1-3)[Fuc(a1-2)]Gal(b1-4)GlcNAc
# Procedure, shortened: as §1
# [16] = target: Gal(b1-4)GalNAc(b1-3)[Fuc(a1-2)]Gal(b1-4)GlcNAc
# Procedure, shortened: as §1
# [17] = target: Gal(b1-4)Glc
# Procedure, shortened: as §1
# [18] = target: Gal(b1-4)Glc6S
# Procedure, shortened: as §1
# [19] = target: Gal(b1-4)GlcNAc
# Procedure, shortened: as §1
# [20] = target: Gal(b1-4)GlcNAc(a1-6)Gal(b1-4)GlcNAc
# Procedure, shortened: as §1
# [21] = target: Gal(b1-4)GlcNAc(b1-2)Man(a1-3)Man(b1-4)GlcNAc(b1-4)GlcNAc
# Procedure, shortened: as §1
# [22] = target: Gal(b1-4)GlcNAc(b1-2)Man(a1-3)[Gal(b1-4)GlcNAc(b1-2)Man(a1-6)]Man(b1-4)GlcNAc(b1-4)GlcNAc
# Procedure, shortened: as §1
# [23] = target: Gal(b1-4)GlcNAc(b1-2)Man(a1-3)[Gal(b1-4)GlcNAc(b1-2)Man(a1-6)]Man(b1-4)GlcNAc(b1-4)[Fuc(a1-6)]GlcNAc
# Procedure, shortened: as §1
# [24] = target: Gal(b1-4)GlcNAc(b1-2)Man(a1-3)[Gal(b1-4)GlcNAc(b1-2)][GlcNAc(b1-4)]Man(b1-4)GlcNAc(b1-4)GlcNAc
# Procedure, shortened: as §1
# [25] = target: Gal(b1-4)GlcNAc(b1-2)Man(a1-3)[GlcNAc(b1-2)Man(a1-6)]Man(b1-4)GlcNAc(b1-4)GlcNAc
# Procedure, shortened: as §1
# [26] = target: Gal(b1-4)GlcNAc(b1-2)Man(a1-3)[Man(a1-6)]Man(b1-4)GlcNAc(b1-4)GlcNAc
# Procedure, shortened: as §1
# [27] = target: Gal(b1-4)GlcNAc(b1-2)Man(a1-6)Man(b1-4)GlcNAc(b1-4)GlcNAc
# Procedure, shortened: as §1
# [28] = target: Gal(b1-4)GlcNAc(b1-2)Man(a1-6)[GlcNAc(b1-2)Man(a1-3)]Man(b1-4)GlcNAc(b1-4)GlcNAc
# Procedure, shortened: as §1
# [29] = target: Gal(b1-4)GlcNAc(b1-2)Man(a1-6)[Man(a1-3)]Man(b1-4)GlcNAc(b1-4)GlcNAc
# Procedure, shortened: as §1
# [30] = target: Gal(b1-4)GlcNAc(b1-2)[Gal(b1-4)GlcNAc(b1-4)]Man(a1-3)[Gal(b1-4)GlcNAc(b1-2)Man(a1-6)]Man(b1-4)GlcNAc(b1-4)GlcNAc
# Procedure, shortened: as §1
# [31] = target: Gal(b1-4)GlcNAc(b1-2)[Gal(b1-4)GlcNAc(b1-4)]Man(a1-3)[Gal(b1-4)GlcNAc(b1-2)[Gal(b1-4)GlcNAc(b1-6)]Man(a1-6)]Man(b1-4)GlcNAc(b1-4)GlcNAc
# Procedure, shortened: as §1
# [32] = target: Gal(b1-4)GlcNAc(b1-2)[Gal(b1-4)GlcNAc(b1-4)]Man(a1-3)[GlcNAc(b1-4)][Gal(b1-4)GlcNAc(b1-2)Man(a1-6)]Man(b1-4)GlcNAc(b1-4)GlcNAc
# Procedure, shortened: as §1
# [33] = target: Gal(b1-4)GlcNAc(b1-2)[Gal(b1-4)GlcNAc(b1-6)]Man(a1-6)[GlcNAc(b1-4)][Gal(b1-4)GlcNAc(b1-2)Man(a1-3)]Man(b1-4)GlcNAc(b1-4)GlcNAc
# Procedure, shortened: as §1
# [34] = target: Gal(b1-4)GlcNAc(b1-3)Gal(b1-3)GlcNAc
# Procedure, shortened: as §1
# [35] = target: Gal(b1-4)GlcNAc(b1-3)Gal(b1-4)Glc
# Procedure, shortened: as §1
# [36] = target: Gal(b1-4)GlcNAc(b1-3)Gal(b1-4)GlcNAc
# Procedure, shortened: as §1
# [37] = target: Gal(b1-4)GlcNAc(b1-3)Gal(b1-4)GlcNAc(b1-3)Gal(b1-4)GlcNAc
# Procedure, shortened: as §1
# [38] = target: Gal(b1-4)GlcNAc(b1-3)Gal(b1-4)[Fuc(a1-3)GlcNAc(b1-6)]Gal(b1-4)Glc
# Procedure, shortened: as §1
# [39] = target: Gal(b1-4)GlcNAc(b1-3)Gal(b1-4)[Fuc(a1-3)]GlcNAc(b1-3)Gal(b1-4)[Fuc(a1-3)]GlcNAc
# Procedure, shortened: as §1
# [40] = target: Gal(b1-4)GlcNAc(b1-3)GalNAc
# Procedure, shortened: as §1
# [41] = target: Gal(b1-4)GlcNAc(b1-3)[Gal(b1-4)GlcNAc(b1-6)]Gal(b1-4)GlcNAc
# Procedure, shortened: as §1
# [42] = target: Gal(b1-4)GlcNAc(b1-3)[Gal(b1-4)GlcNAc(b1-6)]GalNAc
# Procedure, shortened: as §1
# [43] = target: Gal(b1-4)GlcNAc(b1-3)[GlcNAc(b1-6)]Gal(b1-4)GlcNAc
# Procedure, shortened: as §1
# [44] = target: Gal(b1-4)GlcNAc(b1-6)Gal(b1-4)GlcNAc
# Procedure, shortened: as §1
# [45] = target: Gal(b1-4)GlcNAc(b1-6)GalNAc
# Procedure, shortened: as §1
binder,measurement,setting,value
B1,glycan array binding signal (z-score),[1],-0.071
same,glycan array binding signal (z-score),[2],-0.063
same,glycan array binding signal (z-score),[3],-0.071
same,glycan array binding signal (z-score),[4],-0.205
same,glycan array binding signal (z-score),[5],0.511
same,glycan array binding signal (z-score),[6],-0.279
same,glycan array binding signal (z-score),[7],-0.204
same,glycan array binding signal (z-score),[8],0.099
same,glycan array binding signal (z-score),[9],-0.275
same,glycan array binding signal (z-score),[10],0.161
same,glycan array binding signal (z-score),[11],-0.103
same,glycan array binding signal (z-score),[12],-0.068
same,glycan array binding signal (z-score),[13],0.042
same,glycan array binding signal (z-score),[14],0.144
same,glycan array binding signal (z-score),[15],0.36
same,glycan array binding signal (z-score),[16],-0.051
same,glycan array binding signal (z-score),[17],-0.07
same,glycan array binding signal (z-score),[18],-0.011
same,glycan array binding signal (z-score),[19],0.104
same,glycan array binding signal (z-score),[20],-0.369
same,glycan array binding signal (z-score),[21],0.077
same,glycan array binding signal (z-score),[22],-0.042
same,glycan array binding signal (z-score),[23],0.632
same,glycan array binding signal (z-score),[24],-0.265
same,glycan array binding signal (z-score),[25],-0.206
same,glycan array binding signal (z-score),[26],-0.281
same,glycan array binding signal (z-score),[27],-0.186
same,glycan array binding signal (z-score),[28],-0.286
same,glycan array binding signal (z-score),[29],-0.225
same,glycan array binding signal (z-score),[30],0.169
same,glycan array binding signal (z-score),[31],-0.253
same,glycan array binding signal (z-score),[32],-0.391
same,glycan array binding signal (z-score),[33],-0.164
same,glycan array binding signal (z-score),[34],0.009
same,glycan array binding signal (z-score),[35],-0.382
same,glycan array binding signal (z-score),[36],-0.157
same,glycan array binding signal (z-score),[37],0.063
same,glycan array binding signal (z-score),[38],0.241
same,glycan array binding signal (z-score),[39],-0.325
same,glycan array binding signal (z-score),[40],-0.053
same,glycan array binding signal (z-score),[41],-0.294
same,glycan array binding signal (z-score),[42],-0.346
same,glycan array binding signal (z-score),[43],-0.073
same,glycan array binding signal (z-score),[44],-0.044
same,glycan array binding signal (z-score),[45],0.016
